{"source": "PubChem BioAssay (Tox21)", "note": "Where “and” joins values, the source holds several entries; their conditions need not be identical. Equal values may be shown once. This list was built around the results that the source calls inconclusive (neither active nor inactive); the mix of calls is not that of the screen. Where the call is inconclusive, the potency comes from a doubtful curve fit. Calls of active or inactive are those of the source. The call rests on the fitted dose curve; in most records, active means well fitted activation curve with a large enough effect in the signal ratio in the repeat runs (not every such curve was filed as active); inconclusive means weak or mixed curves, or effect the other way; inactive means no such curve, though single readings can be large or run the other way; the % refers to the signal ratio. On the % scale 0 is the no-effect control and ±100 the full control effect; potency means the concentration at half of the fitted maximal effect; tags describe the fitted curve by direction and shape."}
{"assay": "qHTS assay for small molecule agonists of the antioxidant response element (ARE) signaling pathway (AID 743202)", "conditions": "HepG2 ARE-bla reporter, beta-lactamase FRET, 16 h; activation: at 73.3 µM (top of the series) unless noted", "procedure,_shortened": "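Quantitative high-throughput format in HepG2 cells bearing an integrated ARE-beta-lactamase reporter. Compound exposure lasted 16 h at 37 C, and fluorescence was read 2 h after adding LiveBLAzer B/G substrate at room temperature.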"}
{"smiles": "[N-]=[N+]=[N-]", "Potency": "inconclusive: 74.4 µM and inconclusive: 43.3 µM"}
{"smiles": "COP(=O)(OC)OC", "Potency": "inactive"}
{"smiles": "Nc1ccccc1Cl", "activation": "inactive: 1.54%"}
{"smiles": "CCCCC(CC)CO[N+](=O)[O-]", "note": "(centres undefined)", "activation": "inconclusive: -23.1%"}
{"smiles": "O=C(O)CCCc1ccc(N(CCCl)CCCl)cc1", "Potency": "inconclusive: 77.3 µM [rising, partial curve, poor fit]"}
{"smiles": "CC1OC(C)OC(C)O1", "note": "(centres undefined)", "activation": "inconclusive: -0.446%"}
{"smiles": "CC(COc1ccc(Oc2ccccc2)cc1)Oc1ccccn1", "note": "(centres undefined)", "Potency": "active: 48.5 µM"}
{"smiles": "CN(C)c1ccccc1", "activation": "inconclusive: 0.666% [at 94.8 µM]"}
{"smiles": "CCC(C)Nc1c([N+](=O)[O-])cc(C(C)(C)C)cc1[N+](=O)[O-]", "note": "(centres undefined)", "activation": "inconclusive: -1.7%"}
{"smiles": "O=[N+]([O-])c1ccccc1CCl", "Potency": "inconclusive: 21.9 µM [rising, full curve, poor fit]"}
{"smiles": "BrCC(Br)C1CCC(Br)C(Br)C1", "note": "(centres undefined)", "activation": "inconclusive: 17.9%"}
{"smiles": "CCc1ccc(C(=O)NN(C(=O)c2cc(C)cc(C)c2)C(C)(C)C)cc1", "Potency": "active: 61.1 µM"}
{"smiles": "O=C(O)C(Br)(Br)Br", "Potency": "active: 5.44 µM"}
{"smiles": "O=C1C[C@@H]2OCC=C3CN4CC[C@]56c7ccccc7N1[C@H]5[C@H]2[C@H]3C[C@H]46", "activation": "inactive: -2.86%"}
